Assay results reported in the supplement of paper PMC9446081.
Out of some 39,000 compounds screened, about 220 (0.56%) showed activity. The list shows a part of the results.

What follows are compounds tested on Escherichia coli K-12 BW25113 (assay: relative growth (OD600 normalised to plate interquartile mean) (fraction); higher = less growth inhibition, active = 0.2 or less). Conditions: 50 µM; LB; incubation time: overnight (16-24 h).
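Further: static incubation at 37 °C against the wild-type strain, values averaged over two biological replicates.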

SMILES	relative growth
O=C(C[C@H]1CC[C@H]2[C@@H](COC[C@@H](O)CN2S(=O)(=O)c2ccc(Cl)cc2)O1)N[C@H]1CCN(Cc2ccccc2)C1	inactive: 1.02
C[C@@H]1CN([C@@H](C)CO)C(=O)c2cc(NS(=O)(=O)c3ccccc3)ccc2O[C@@H](C)CCCCO[C@H]1CN(C)Cc1ccccc1	inactive: 0.979
C[C@@H]1CN([C@H](C)CO)C(=O)c2cccc(NC(=O)c3nc4ccccc4s3)c2O[C@H]1CN(C)S(C)(=O)=O	inactive: 0.991
COc1ccc(S(=O)(=O)N(C)C[C@H]2Oc3c(NC(=O)c4cnccn4)cccc3C(=O)N([C@@H](C)CO)C[C@H]2C)cc1	inactive: 1.01
Cc1ccc(S(=O)(=O)Nc2ccc3c(c2)C(=O)N([C@@H](C)CO)C[C@@H](C)[C@H](CN(C)S(C)(=O)=O)O3)cc1	inactive: 0.994
COc1ccc(NC(=O)N(C)C[C@H]2OCCCC[C@@H](C)Oc3ccc(NS(=O)(=O)c4ccccc4)cc3C(=O)N([C@H](C)CO)C[C@@H]2C)cc1	inactive: 1.01
CC(C)NC(=O)Nc1ccc2c(c1)C(=O)N([C@H](C)CO)C[C@@H](C)[C@H](CN(C)S(C)(=O)=O)OCCCC[C@H](C)O2	inactive: 1.01
CN1CCN(C(=O)C[C@@H]2CC[C@@H]3[C@H](COC[C@H](O)CN3Cc3ccc4c(c3)OCO4)O2)CC1	inactive: 0.981
CCCNC(=O)N[C@H]1C=C[C@H](CC(=O)N2CCN(C)CC2)O[C@H]1CO	inactive: 0.985
CC(CCC(=O)O)C1CCC2C3CC(O)C4CC(O)CCC4(C)C3CCC12C (stereo not drawn) [alpha-HYDROXYDEOXYCHOLIC ACID]	inactive: 1.14
C[C@@H]1CCCCO[C@@H](CN(C)C(=O)CCCN(C)C)[C@@H](C)CN([C@@H](C)CO)C(=O)c2cc(N(C)C)ccc2O1	inactive: 1.02
COc1cccc(NC(=O)C[C@H]2CC[C@H]3[C@@H](COc4ccc(NC(=O)C5CCOCC5)cc4C(=O)N3C)O2)c1	inactive: 1
CC(C)NC(=O)Nc1ccc2c(c1)C(=O)N([C@H](C)CO)C[C@@H](C)[C@@H](CN(C)Cc1ccc(C(F)(F)F)cc1)OCCCC[C@H](C)O2	inactive: 0.797
C[C@H](CO)N1C[C@H](C)[C@H](CN(C)Cc2ccc(Cl)c(Cl)c2)Oc2ccc(NC(=O)Cc3ccccc3)cc2CC1=O	inactive: 1.01
Cc1noc(C)c1NC(=O)Nc1ccc2c(c1)C(=O)N([C@H](C)CO)C[C@@H](C)[C@H](CN(C)C(=O)Nc1cccc3ccccc13)OCCCC[C@H](C)O2	inactive: 1
COc1ccc(S(=O)(=O)N(C)C[C@@H]2Oc3c(NS(=O)(=O)c4ccc(F)cc4)cccc3C(=O)N([C@H](C)CO)C[C@H]2C)cc1	inactive: 0.984
C[C@@H]1CN([C@@H](C)CO)C(=O)Cc2cc(NC(=O)Cc3cn(C)c4ccccc34)ccc2O[C@H]1CN(C)Cc1ccc(-c2ccccc2)cc1	inactive: 1.01
C=CCOC(=O)[C@H]1[C@@H]2C(=O)O[C@@H](c3ccccc3)[C@@H](c3ccccc3)N2[C@@H](c2ccc(OCCOC(=O)[C@H]3C[C@H]4C(=O)N5CCC[C@H]5C(=O)N4[C@H]3c3ccc(O)cc3)cc2)[C@]12C(=O)Nc1ccc(I)cc12	inactive: 1.02
Cc1ccc(C(C)C)cc2c(C)ccc1-2	inactive: 1.09
C[C@H](CO)N1C[C@H](C)[C@H](CN(C)S(C)(=O)=O)Oc2ccc(NC(=O)Nc3ccccc3)cc2CC1=O	inactive: 0.984
C[C@@H]1CCCCO[C@H](CN(C)Cc2ccc(C(=O)O)cc2)[C@H](C)CN([C@@H](C)CO)C(=O)c2cc(NS(=O)(=O)c3cccs3)ccc2O1	inactive: 1.01
CC(C)(C)S(=O)N1Cc2cc(C(=O)Nc3ccc(-c4ccccc4)cc3)nc(-c3cccc(-c4cccc(F)c4)c3)c2[C@@H]1CCO (stereo not given in full)	inactive: 0.999
CC(C)NC(=O)Nc1ccc2c(c1)C(=O)N([C@H](C)CO)C[C@@H](C)[C@H](CN(C)S(=O)(=O)c1ccc(F)cc1)O2	inactive: 1.02
COCCNC(=O)C[C@H]1CC[C@H]2[C@@H](COC[C@@H](O)CN2S(=O)(=O)c2ccccc2F)O1	inactive: 0.964
C[C@H](CO)N1C[C@H](C)[C@H](CN(C)Cc2ccc(C(=O)O)cc2)OCCCC[C@H](C)Oc2ccc(NC(=O)Nc3cccc4ccccc34)cc2C1=O	inactive: 1.04
C[C@@H]1CCCCO[C@H](CN(C)S(C)(=O)=O)[C@@H](C)CN([C@H](C)CO)C(=O)c2cc(NS(=O)(=O)c3cn(C)cn3)ccc2O1	inactive: 0.989
NC(=O)NCC#Cc1ccc2c(c1)[C@]1(C(=O)N2)[C@H](C(=O)Nc2nc3ccccc3s2)[C@H]2C(=O)O[C@H](c3ccccc3)[C@H](c3ccccc3)N2[C@@H]1c1ccccc1OCCO	inactive: 1.04
Cc1ccc(S(=O)(=O)Nc2ccc3c(c2)C(=O)N([C@H](C)CO)C[C@H](C)[C@@H](CN(C)C(=O)Nc2ccc(C(F)(F)F)cc2)OCCCC[C@H](C)O3)cc1	inactive: 1

SMILES	relative growth
CCn1nnc2c(N3CCOCC3)ncnc21	inactive: 0.986
C[C@H]1CCCCO[C@@H](CN(C)S(=O)(=O)c2cccs2)[C@@H](C)CN([C@@H](C)CO)C(=O)c2cc(NC(=O)Nc3ccc(F)cc3)ccc2O1	inactive: 1.04
COc1ccc(N2C[C@H](C(N)=O)CC2=O)cc1	inactive: 1.03
O=C(CS)NCCCCCCNC(=O)[C@@H]1C[C@@H]2C(=O)NCC(=O)N2[C@@H]1c1cccc(OCCO)c1	inactive: 1.04
C[C@@H]1CN([C@H](C)CO)C(=O)c2cc(NC(=O)Nc3ccc4c(c3)OCO4)ccc2O[C@@H](C)CCCCO[C@@H]1CN(C)Cc1ccc(Cl)c(Cl)c1	inactive: 1.02
COc1ccc(S(=O)(=O)Nc2cccc3c2O[C@H](CN(C)Cc2ccc(-c4ccccc4)cc2)[C@@H](C)CN([C@@H](C)CO)C3=O)cc1	inactive: 1.05
C[C@@H]1O[C@@H]1P(=O)(O)O	inactive: 1.02
C[C@@H]1CCCCO[C@@H](CN(C)Cc2ccc(C(F)(F)F)cc2)[C@@H](C)CN([C@H](C)CO)C(=O)c2cc(NC(=O)Nc3ccc4c(c3)OCO4)ccc2O1	inactive: 1.02
C[C@@H]1CN([C@@H](C)CO)C(=O)c2cc(NC(=O)Nc3ccc4c(c3)OCO4)ccc2O[C@@H](C)CCCCO[C@@H]1CN(C)C(=O)Nc1ccc2c(c1)OCO2	inactive: 1.03
C[C@H](CO)N1C[C@H](C)[C@@H](CN(C)S(=O)(=O)c2ccc(F)cc2)Oc2ccc(NC(=O)c3ccncc3)cc2C1=O	inactive: 0.99
COc1ccc(S(=O)(=O)Nc2ccc3c(c2)C(=O)N([C@H](C)CO)C[C@@H](C)[C@H](CN(C)S(=O)(=O)c2ccc(C)cc2)O3)cc1	inactive: 0.999
Cc1noc(C)c1NC(=O)N(C)C[C@@H]1Oc2c(NC(=O)c3ccc(-c4nccs4)cc3)cccc2C(=O)N([C@@H](C)CO)C[C@@H]1C	inactive: 1.05
Cc1ccc(S(=O)(=O)N(C)C[C@H]2OCCCC[C@@H](C)Oc3ccc(NC(=O)C4CCCCC4)cc3C(=O)N([C@H](C)CO)C[C@@H]2C)cc1	inactive: 1.01
Cc1ccc(S(=O)(=O)N(C)C[C@@H]2Oc3ncc(C#CCC(C)C)cc3C(=O)N([C@@H](C)CO)C[C@H]2C)cc1	inactive: 1.02
COC(=O)C(CC#Cc1ccc2c(c1)[C@]1(C(=O)N2)[C@H](C(=O)N2CCc3cc(OC)c(OC)cc3C2)[C@H]2C(=O)O[C@H](c3ccccc3)[C@H](c3ccccc3)N2[C@@H]1c1ccc(O)cc1)C(=O)OC	inactive: 0.989
Nc1ccn([C@H]2O[C@@H](CO)[C@@H](O)[C@@H]2O)c(=O)n1	inactive: 1.01
CN(C)CC(=O)N[C@H]1CC[C@H](CC(=O)NCCN2CCCCC2)O[C@@H]1CO	inactive: 0.97
C[C@H](C(=O)N(C)C[C@H]1OCc2ccccc2-c2c(n(C)c3ccccc23)C(=O)N([C@H](C)CO)C[C@@H]1C)c1ccccc1	inactive: 0.994
C[C@@H]1CN([C@H](C)CO)C(=O)c2cc(NC(=O)C3CCCCC3)ccc2O[C@@H]1CN(C)Cc1ccc(Oc2ccccc2)cc1	inactive: 0.965
C[C@H](CO)N1C[C@H](C)[C@@H](CN(C)C(=O)Nc2ccc(C(F)(F)F)cc2)OCCCC[C@H](C)Oc2ccc(NC(=O)c3ccncc3)cc2C1=O	inactive: 0.929
C[C@@H]1CN([C@@H](C)CO)C(=O)CCCn2nncc2CO[C@H]1CN(C)C(=O)Nc1ccc2c(c1)OCCO2	inactive: 0.99
COc1ccccc1NC(=O)N(C)C[C@@H]1OCc2ccccc2-c2c(n(C)c3ccccc23)C(=O)N([C@H](C)CO)C[C@@H]1C	inactive: 1.01
CC(C)NC(=O)N(C)C[C@H]1Oc2ccc(NC(=O)C3CCCCC3)cc2CC(=O)N([C@@H](C)CO)C[C@@H]1C	inactive: 1.01
C[C@@H]1CN([C@@H](C)CO)C(=O)c2cc(NC(=O)Nc3cccc4ccccc34)ccc2O[C@@H](C)CCCCO[C@H]1CN(C)C(=O)CCCN(C)C	inactive: 0.978
C[C@H](CO)N1C[C@H](C)[C@@H](CN(C)C(=O)c2ccccc2)OCCCC[C@H](C)Oc2ccc(NC(=O)Nc3cccc4ccccc34)cc2C1=O	inactive: 1.02
COc1ccc(S(=O)(=O)N(C)C[C@@H]2OCCCC[C@@H](C)Oc3ccc(NS(C)(=O)=O)cc3C(=O)N([C@@H](C)CO)C[C@@H]2C)cc1	inactive: 0.921
C[C@@H]1CN([C@H](C)CO)C(=O)c2c(c3ccccc3n2C)-c2ccccc2CO[C@@H]1CN(C)Cc1ccccc1	inactive: 0.975
